Sequences and labels used below:
B1: GPR68, Q15743 (parent)
chain: MGNITADNSSMSCTIDHTIHQTLAPVVYVTVLVVGFPANCLSLYFGYLQIKARNELGVYLCNLTVADLFYICSLPFWLQYVLQHDNWSHGDLSCQVCGILLYENIYISVGFLCCISVDRYLAVAHPFRFHQFRTLKAAVGVSVVIWAKELLTSIYFLMHEEVIEDENQHRVCFEHYPIQAWQRAINYYRFLVGFLFPICLLLASYQGILRAVRRSHGTQKSRKDQIQRLVLSTVVIFLACFLPYHVLLLVRSVWEASCDFAKGVFNAYHFSLLLTSFNCVADPVLYCFVSETTHRDLARLRGACLAFLTCSRTGRAREAYPLGAPEASGKSGAQGEEPELLTKLHPAFQTPNSPGSGGFPTGRLA

The least precise scores are not listed. Not listed are two conditions whose scores span a narrow range. Names with del lack the residues named; names with ins carry added residues between the positions named. For some of these results: The data file names ogerin without a concentration.

Series [1] covers variants of B1. Put plainly: cAMP reporter score (Enrich2 score, wild type = 0); higher = more signal; HEK293T, FACS bins.
The variants in series [2] derive from B1. Put plainly: surface expression score (Enrich2 score, wild type = 0); higher = more signal; HEK293T, FACS bins.

L364del: the cAMP reporter score in series [1] (pH 5.5) came to 0.718; in series [1] (pH 6, modulator: ogerin), 0.631; in series [1] (pH 6.5, modulator: ogerin) it was 0.749. Further, the surface expression score in series [2] amounted to 0.507.
On to MGNITADNSSMSCTIDHTIHQTLAPVVYVTVLVVGFPANCLSLYFGYLQIKARNELGVYLCNLTVADLFYICSLPFWLQYVLQHDNWSHGDLSCQVCGILLYENIYISVGFLCCISVDRYLAVAHPFRFHQFRTLKAAVGVSVVIWAKELLTSIYFLMHEEVIEDENQHRVCFEHYPIQAWQRAINYYRFLVGFLFPICLLLASYQGILRAVRRSHGTQKSRKDQIQRLVLSTVVIFLACFLPYHVLLLVRSVWEASCDFAKGVFNAYHFSLLLTSFNCVADPVLYCFVSETTHRDLARLRGACLAFLTCSRTGRAREAYPLGAPEASGKSGAQGEEPELLTKLHPAFQTPNSPGSGGFPTGWLA [R363W], for which the cAMP reporter score is 0.092 in series [1] (pH 5.5); -0.204 in series [1] (pH 6); 0.017 in series [1] (pH 6, modulator: ogerin); -0.243 in series [1] (pH 6.5, modulator: ogerin). For the same variant, in series [2], the surface expression score is -0.115.
For the variant MGNITADNSSMSCTIDHTIHQTLAPVVYVTVLVVGFPANCLSLYFGYLQIKARNELGVYLCNLTVADLFYICSLPFWLQYVLQHDNWSHGDLSCQVCGILLYENIYISVGFLCCISVDRYLAVAHPFRFHQFRTLKAAVGVSVVIWAKELLTSIYFLMHEEVIEDENQHRVCFEHYPIQAWQRAINYYRFLVGFLFPICLLLASYQGILRAVRRSHGTQKSRKDQIQRLVLSTVVIFLACFLPYHVLLLVRSVWEASCDFAKGVFNAYHFSLLLTSFNCVADPVLYCFVSETTHRDLARLRGACLAFLTCSRTGRAREAYPLGAPEASGKSGAQGEEPELLTKLHPAFQTPNSPGSGGFPTGVLA [R363V], the cAMP reporter score in series [1] (pH 5.5) worked out at 0.979; in series [1] (pH 6), 0.552; in series [1] (pH 6, modulator: ogerin) it was 1.28; in series [1] (pH 6.5, modulator: ogerin), 0.765. The surface expression score in series [2] stood at 1.79.
MGNITADNSSMSCTIDHTIHQTLAPVVYVTVLVVGFPANCLSLYFGYLQIKARNELGVYLCNLTVADLFYICSLPFWLQYVLQHDNWSHGDLSCQVCGILLYENIYISVGFLCCISVDRYLAVAHPFRFHQFRTLKAAVGVSVVIWAKELLTSIYFLMHEEVIEDENQHRVCFEHYPIQAWQRAINYYRFLVGFLFPICLLLASYQGILRAVRRSHGTQKSRKDQIQRLVLSTVVIFLACFLPYHVLLLVRSVWEASCDFAKGVFNAYHFSLLLTSFNCVADPVLYCFVSETTHRDLARLRGACLAFLTCSRTGRAREAYPLGAPEASGKSGAQGEEPELLTKLHPAFQTPNSPGSGGFPTGYLA [R363Y]: the cAMP reporter score in series [1] (pH 5.5) was -0.331; in series [1] (pH 6, modulator: ogerin) it was -0.055; in series [1] (pH 6.5, modulator: ogerin), -0.397. The surface expression score in series [2] was -0.151.
Take MGNITAKNSSMSCTIDHTIHQTLAPVVYVTVLVVGFPANCLSLYFGYLQIKARNELGVYLCNLTVADLFYICSLPFWLQYVLQHDNWSHGDLSCQVCGILLYENIYISVGFLCCISVDRYLAVAHPFRFHQFRTLKAAVGVSVVIWAKELLTSIYFLMHEEVIEDENQHRVCFEHYPIQAWQRAINYYRFLVGFLFPICLLLASYQGILRAVRRSHGTQKSRKDQIQRLVLSTVVIFLACFLPYHVLLLVRSVWEASCDFAKGVFNAYHFSLLLTSFNCVADPVLYCFVSETTHRDLARLRGACLAFLTCSRTGRAREAYPLGAPEASGKSGAQGEEPELLTKLHPAFQTPNSPGSGGFPTGRLA [D7K]: the cAMP reporter score in series [1] (pH 6) is 0.549; in series [1] (pH 6, modulator: ogerin) it was -1.08; in series [1] (pH 6.5, modulator: ogerin) it was -0.165. In addition, the surface expression score in series [2] was found to be 0.139.
Consider L364_A365insG, for which the cAMP reporter score in series [1] (pH 5.5) was 0.549; in series [1] (pH 6), 0.787; in series [1] (pH 6, modulator: ogerin) it was -0.479; in series [1] (pH 6.5, modulator: ogerin) it was 0.405. Further, in series [2], the surface expression score worked out at 0.632.
Regarding R363_L364insG, the cAMP reporter score turned out to be 0.432 in series [1] (pH 5.5); 0.708 in series [1] (pH 6, modulator: ogerin); 0.872 in series [1] (pH 6.5, modulator: ogerin). Further, the surface expression score in series [2] was determined as 0.548.

Source of the values: the GPR68 mutational scans of Howard et al. (2025).
